This is an account of results in the antibiotic and cytotoxicity screens of Wong et al. (2023).

The other results are listed elsewhere or left out.

The assay deals with S. aureus RN4220. As to the kind of experiment: growth inhibition call (relative growth <= 0.2). The note with it: 50 µM.
Take `NC(=O)c1ccc([N+](=O)[O-])cc1Cl`: the growth inhibition call is “inactive”.
For `CC(C)CC#Cc1cnc2c(c1)C(=O)N([C@H](C)CO)C[C@H](C)[C@@H](CN(C)S(=O)(=O)c1cn(C)cn1)O2` the value was “inactive”; for `C[C@H](CO)N1C[C@H](C)[C@H](CN(C)S(=O)(=O)c2ccc(F)cc2)OCCCC[C@H](C)Oc2ccc(NC(=O)Nc3ccc4c(c3)OCO4)cc2C1=O`, “inactive”.
In the case of `C[C@@H]1CCCCO[C@H](CN(C)C(=O)c2ccccc2)[C@H](C)CN([C@@H](C)CO)C(=O)c2cc(NC(=O)C3CCCCC3)ccc2O1`, the growth inhibition call was “inactive”.
As for `C=CC[C@@H](CC(=O)NCCO)C(=O)N[C@H](COC(=O)[C@H](CC=C)CC(=O)OC(C)(C)C)Cc1c[nH]c2ccccc12`, the growth inhibition call is “inactive”.
In the case of `Cc1ccc(C)c(Cc2cc(Cl)ccc2Cl)c1`, the growth inhibition call was “inactive”.
For `CN1CCc2nc(N)sc2C1` the value was “inactive”.
For `O=C(O[C@@H]1O[C@H]2COC(=O)c3cc(O)c(O)c(O)c3-c3c(cc(O)c(O)c3O)C(=O)O[C@@H]([C@H]1O)[C@@H]2OC(=O)c1cc(O)c(O)c(O)c1-c1c(C(=O)O)cc(O)c(O)c1O)c1cc(O)c(O)c(O)c1`, the growth inhibition call is “inactive”.
The same measure for `COc1ccc(S(=O)(=O)Nc2ccc3c(c2)OC[C@@H](C)N(C)C[C@@H](C)[C@H](OC)CN(C)C3=O)cc1`: “inactive”; for `CN1C(=O)c2cc(NC(=O)c3ccc(C(F)(F)F)cc3)ccc2OC[C@H]2O[C@H](CC(=O)NC3Cc4ccccc4C3)CC[C@H]21`: “inactive”.
The same measure for `COC(=O)c1c2oc(c1C(=O)OC)C(=O)N[C@H](Cc1ccccc1)Cn1cc(nn1)[C@@H](Cc1ccccc1)NC(=O)N[C@@H](COC(=O)NCCCCCC(=O)NO)CC2`: “inactive”.
